# Assay results: the supplement of paper PMC12217912
# The other results are listed elsewhere or left out. The full chains were built here from the parent and the listed change. Inactive controls read about 0.05.
# B1: TEV protease; numbered along this chain (parent)
# chain: MGESLFKGPRDYNPISSSICHLTNESDGHTTSLYGIGFGPFIITNKHLFRRNNGTLVVQSLHGVFKVKDTTTLQQHLVDGRDMIIIRMPKDFPPFPQKLKFREPQREERICLVTTNFQTKSMSSMVSDTSCTFPSGDGIFWKHWIQTKDGQCGSPLVSTRDGFIVGIHSASNFTNTNNYFTSVPKNFMELLTNQEAQQWVSGWRLNADSVLWGGHKVFMVKPEEPFQPVKEATQL
# Variants of: B1
# Experiment: raw area under fraction-flipped curve 0-4 h after induction (AUC4h, not background-subtracted), DNA-recorder readout of cleavage of the substrate (dimensionless); higher = more cleavage of the substrate by the protease variant
# Settings: temperature: 34 °C; time window: 0-4 h after rhamnose induction
# Protocol: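 In vivo DNA recorder in E. coli TOP10(DE3) ΔrhaA at 34 °C. Each TEVp single-site mutant (parent TEVp 0) is paired with a single-site variant of the 7-mer TEVs (canonical ENLYFQ|S). The substrate sits between flexible linkers in a Bxb1-sfGFP-TEVs-SsrA fusion, so cleavage stabilises Bxb1 and speeds flipping of a recombination array, read by NGS. The value is the raw area under the fraction-flipped curve over 0-4 h after rhamnose induction (AUC4h), with ≥20 reads per time point. It is not background-subtracted; inactive controls average about 0.047.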
# 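Note: Bxb1 expression induced with 0.2% (w/v) L-rhamnose at OD600 near 0.5, cultures sampled hourly, flipped fraction per protease–substrate barcode pair counted by paired-end Illumina sequencing.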
Variant,area with substrate ANLYFQS,area with substrate CNLYFQS,area with substrate DNLYFQS,area with substrate FNLYFQS,area with substrate GNLYFQS,area with substrate HNLYFQS,area with substrate INLYFQS,area with substrate KNLYFQS,area with substrate MNLYFQS,area with substrate TNLYFQS,area with substrate WNLYFQS,area with substrate LNLYFQS,area with substrate PNLYFQS,area with substrate RNLYFQS,area with substrate SNLYFQS,area with substrate VNLYFQS,area with substrate NNLYFQS,area with substrate YNLYFQS
MGESLFKGPRDYNPISSSICHLTNESDGHTTSLYGIGFGPFIITNKHLFRRNNGTLVVQSLHGVFKVKDTTTLQQHLVDGRDMIIIRMPKDFPPFPQKLKFREPQREERICLVTTNFTTKSMSSMVSDTSCTFPSGDGIFWKHWIQTKDGQCGSPLVSTRDGFIVGIHSASNFTNTNNYFTSVPKNFMELLTNQEAQQWVSGWRLNADSVLWGGHKVFMVKPEEPFQPVKEATQL [Q118T],0.0758,0.0728,0.0923,0.0735,0.074,0.0989,0.082,0.0616,0.0491,0.0607,0.051,,,,,,,
MGESLFKGPRDYNPISSSICHLTNESDGHTTSLYGIGFGPFIITNKHLFRRNNGTLVVQSLHGVFKVKDTTTLQQHLVDGRDMIIIRMPKDFPPFPQKLKFREPQREERICLVTTNFQTKSMSSMFSDTSCTFPSGDGIFWKHWIQTKDGQCGSPLVSTRDGFIVGIHSASNFTNTNNYFTSVPKNFMELLTNQEAQQWVSGWRLNADSVLWGGHKVFMVKPEEPFQPVKEATQL [V126F],0.0573,0.078,0.0793,0.0595,0.067,0.0685,0.0465,0.0743,0.0707,0.0675,0.05,0.0646,0.08,0.0569,0.0803,0.0644,,
MGESLFKGPRDYNPISSSICHLTNESDGHTTSLYGIGFGPFIITNKHLFRRNNGTLVVQSLHGVFKVKDTTTLQQHLVDGRDMIIIRMPKDFPPFPQKLKFREPQREERICLVTTNFQTKSMSSMMSDTSCTFPSGDGIFWKHWIQTKDGQCGSPLVSTRDGFIVGIHSASNFTNTNNYFTSVPKNFMELLTNQEAQQWVSGWRLNADSVLWGGHKVFMVKPEEPFQPVKEATQL [V126M],0.0498,0.0563,0.0767,0.0608,0.0648,0.0548,0.0707,0.0638,0.0727,0.0712,0.0557,,0.0417,0.0505,0.0679,,0.0642,0.072
MGESLFKGPRDYNPISSSICHLTNESDGHTTSLYGIGFGPFIITNKHLFRRNNGTLVVQSLHGVFKVKDTTTLQQHLVDGRDMIIIRMPKDFPPFPQKLKFREPQREERICLVTTNFQTKSESSMVSDTSCTFPSGDGIFWKHWIQTKDGQCGSPLVSTRDGFIVGIHSASNFTNTNNYFTSVPKNFMELLTNQEAQQWVSGWRLNADSVLWGGHKVFMVKPEEPFQPVKEATQL [M122E],0.0827,0.0683,0.115,,0.062,0.0697,0.0682,,0.0895,0.0536,0.0798,0.0599,0.0587,0.0765,0.0824,,0.0728,0.0726
MGESLFKGPRDYNPISSSICHLTNESDGHTTSLYGIGFGPFIITNKHLFRRNNGTLVVQSLHGVFKVKDTTTLQQHLVDGRDMIIIRMPKDFPPFPQKLKFREPQREERICLVTTNFQTKSQSSMVSDTSCTFPSGDGIFWKHWIQTKDGQCGSPLVSTRDGFIVGIHSASNFTNTNNYFTSVPKNFMELLTNQEAQQWVSGWRLNADSVLWGGHKVFMVKPEEPFQPVKEATQL [M122Q],0.0512,0.0704,0.0938,0.0649,0.0688,0.0667,0.0604,0.0758,,0.0671,0.0389,,0.0734,,0.0479,0.069,0.0616,0.0607
MGESLFKGPRDYNPISSSICHLTNESDGHTTSLYGIGFGPFIITNKHLFRRNNGTLVVQSLHGVFKVKDTTTLQQHLVDGRDMIIIRMPKDFPPFPQKLKFREPQREERICLVTTNFQTKSMMSMVSDTSCTFPSGDGIFWKHWIQTKDGQCGSPLVSTRDGFIVGIHSASNFTNTNNYFTSVPKNFMELLTNQEAQQWVSGWRLNADSVLWGGHKVFMVKPEEPFQPVKEATQL [S123M],0.0524,0.0702,0.0195,0.0647,0.0614,0.0608,0.0587,0.0862,,0.0553,0.0562,0.0752,0.0636,0.062,,,,
MGESLFKGPRDYNPISSSICHLTNESDGHTTSLYGIGFGPFIITNKHLFRRNNGTLVVQSLHGVFKVKDTTTLQQHLVDGRDMIIIRMPKDFPPFPQKLKFREPQREERICLVTTNFQTKSMASMVSDTSCTFPSGDGIFWKHWIQTKDGQCGSPLVSTRDGFIVGIHSASNFTNTNNYFTSVPKNFMELLTNQEAQQWVSGWRLNADSVLWGGHKVFMVKPEEPFQPVKEATQL [S123A],0.0428,0.0794,0.0635,,,0.0633,,,,,0.0629,0.0704,0.0694,,0.0752,,,0.0669
MGESLFKGPRDYNPISSSICHLTNESDGHTTSLYGIGFGPFIITNKHLFRRNNGTLVVQSLHGVFKVKDTTTLQQHLVDGRDMIIIRMPKDFPPFPQKLKFREPQREERICLVTTNFQTKSMKSMVSDTSCTFPSGDGIFWKHWIQTKDGQCGSPLVSTRDGFIVGIHSASNFTNTNNYFTSVPKNFMELLTNQEAQQWVSGWRLNADSVLWGGHKVFMVKPEEPFQPVKEATQL [S123K],0.0685,0.0772,0.0883,0.0618,0.0726,0.0625,0.0806,,0.0714,,0.0505,0.0726,,,0.0667,,,0.0479
MGESLFKGPRDYNPISSSICHLTNESDGHTTSLYGIGFGPFIITNKHLFRRNNGTLVVQSLHGVFKVKDTTTLQQHLVDGRDMIIIRMPKDFPPFPQKLKFREPQREERICLVTTNFQTKSMSWMVSDTSCTFPSGDGIFWKHWIQTKDGQCGSPLVSTRDGFIVGIHSASNFTNTNNYFTSVPKNFMELLTNQEAQQWVSGWRLNADSVLWGGHKVFMVKPEEPFQPVKEATQL [S124W],0.11,0.102,0.0632,0.0718,0.0622,0.0592,,,0.0787,0.064,0.0503,0.0604,0.0784,,,,0.0819,0.0551
